Laboratory results published in article PMC4336329 (PLoS ONE, 2015).
In all, about 310,000 compounds went through this assay and about 2,200 (0.71%) showed an effect of 50% or more. The effect is printed as a negative number. This is one part of the list.

What follows are compounds tested against human ether-à-go-go-related gene (hERG) potassium channel (human, UniProt Q12809) (assay: primary screen, population patch clamp on CHO cells stably expressing hERG).
human ether-à-go-go-related gene (hERG) potassium channel, sequence (Q12809 whole entry, looked up): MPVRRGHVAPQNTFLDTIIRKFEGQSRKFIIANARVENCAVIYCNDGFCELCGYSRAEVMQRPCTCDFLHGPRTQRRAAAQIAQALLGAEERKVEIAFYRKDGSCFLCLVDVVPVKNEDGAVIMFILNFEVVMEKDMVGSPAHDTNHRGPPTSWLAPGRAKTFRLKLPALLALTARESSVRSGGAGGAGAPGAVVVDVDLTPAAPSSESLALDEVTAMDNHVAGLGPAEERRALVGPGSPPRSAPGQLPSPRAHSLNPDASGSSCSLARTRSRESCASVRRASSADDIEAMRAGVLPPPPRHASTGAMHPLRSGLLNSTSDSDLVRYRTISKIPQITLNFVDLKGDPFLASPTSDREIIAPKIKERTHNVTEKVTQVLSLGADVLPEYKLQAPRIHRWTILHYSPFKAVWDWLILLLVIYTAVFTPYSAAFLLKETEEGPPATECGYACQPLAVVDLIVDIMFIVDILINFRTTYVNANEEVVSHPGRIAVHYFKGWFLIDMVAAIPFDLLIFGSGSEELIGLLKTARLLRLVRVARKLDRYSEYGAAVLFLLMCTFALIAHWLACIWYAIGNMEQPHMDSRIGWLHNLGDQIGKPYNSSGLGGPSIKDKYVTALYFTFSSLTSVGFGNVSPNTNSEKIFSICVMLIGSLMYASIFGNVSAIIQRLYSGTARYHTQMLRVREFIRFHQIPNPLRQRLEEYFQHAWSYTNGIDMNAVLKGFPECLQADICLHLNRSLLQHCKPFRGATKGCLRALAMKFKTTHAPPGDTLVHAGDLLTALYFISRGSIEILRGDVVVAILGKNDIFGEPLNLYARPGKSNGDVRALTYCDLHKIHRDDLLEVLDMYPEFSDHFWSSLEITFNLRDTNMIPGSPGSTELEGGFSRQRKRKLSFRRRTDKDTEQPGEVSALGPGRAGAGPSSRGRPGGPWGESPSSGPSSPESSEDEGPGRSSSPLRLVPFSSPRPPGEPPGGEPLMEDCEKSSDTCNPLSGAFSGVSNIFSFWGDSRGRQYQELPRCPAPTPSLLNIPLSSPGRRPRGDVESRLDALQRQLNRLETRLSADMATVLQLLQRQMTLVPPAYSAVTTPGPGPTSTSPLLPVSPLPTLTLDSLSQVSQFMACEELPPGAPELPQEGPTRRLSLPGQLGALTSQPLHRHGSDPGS
For `CCOC(=O)c1ccc[n+](CC(=O)Nc2ccccc2OC(F)F)c1.[Cl-]`, the “hERG current change (%, negative = inhibition) at 1uM” value was 6.39%. `O=C(Nc1ccccc1)NC1CCN(Cc2nnnn2C2CCCCC2)CC1` was tested, and the “hERG current change (%, negative = inhibition) at 1uM” value was -19.1%. For `C/C(N)=C(/C#N)C(=O)CSc1nnc(SCc2ccc(Cl)cc2)s1`, the “hERG current change (%, negative = inhibition) at 1uM” value was 3.16%. For `O=c1ccc(C(F)(F)F)cn1Cc1cc(=O)n2cc(Br)ccc2n1`, the “hERG current change (%, negative = inhibition) at 1uM” value was 13.7%. For `CSc1nc2cc(F)c(F)cc2n1C`, the “hERG current change (%, negative = inhibition) at 1uM” value was 1.22%. For `Cc1ccc(N2CC(NS(=O)(=O)c3cccs3)CC2=O)cc1` (stereo not drawn), the “hERG current change (%, negative = inhibition) at 1uM” value was 17.7%. In the case of `Cc1ccc(/C=C2\SC(=S)N(CCC(=O)NNC(=O)c3ccncc3)C2=O)cc1`, the “hERG current change (%, negative = inhibition) at 1uM” value is reported as 10.8%. `O=C(CN1CCCCC1)Nc1c2c(nc3ccccc13)N(c1ccccc1)CC2.O=C(O)C(=O)O` was tested, and the “hERG current change (%, negative = inhibition) at 1uM” value was 11.2%. With `O=C(CCN1CCCCCC1)Nc1ccc(F)c(F)c1` the “hERG current change (%, negative = inhibition) at 1uM” value was -3.87%. `CC1CCc2c(sc(NC(=O)Cn3nc(C(F)(F)F)c4c3CCCCC4)c2C#N)C1` (stereo not drawn) was tested, and the “hERG current change (%, negative = inhibition) at 1uM” value was 15.2%. For `S=c1[nH]nc(-c2ccccn2)n1/N=C/c1c(Cl)cccc1Cl`, the “hERG current change (%, negative = inhibition) at 1uM” value was 15.8%. With `Cc1cc(C)c2c3c(sc2n1)C(=O)N(Cc1ccccc1)CC(=O)N3` the “hERG current change (%, negative = inhibition) at 1uM” value was -11.8%. For `Cc1ccc(S(=O)(=O)N2CCCC2CNC(=O)C(=O)NC2CCCC2)cc1` (stereo not drawn), the “hERG current change (%, negative = inhibition) at 1uM” value was -3.13%. For `CCOc1cc(CN2CCN(c3ncccn3)CC2)ccc1OC`, the “hERG current change (%, negative = inhibition) at 1uM” value was 8.3%. For `COc1ccc(/C=N/NC(=O)c2snnc2C)c(OC)c1OC`, the “hERG current change (%, negative = inhibition) at 1uM” value was 8.23%. In the case of `CC(=O)Nc1ccc(S(=O)(=O)N2CCN(C34CC5CC(CC(C5)C3)C4)CC2)cc1`, the “hERG current change (%, negative = inhibition) at 1uM” value is reported as 3.31%. `CCOc1ccc(-n2cnnn2)cc1S(=O)(=O)NC1CC1` was tested, and the “hERG current change (%, negative = inhibition) at 1uM” value was 1.61%. For `O=C(O)c1nn(CCOc2cccc(Cl)c2)c(=O)c2ccccc12`, the “hERG current change (%, negative = inhibition) at 1uM” value was 3.68%. With `Cc1ccc(SCC(=O)Nc2ccc(N3CCOCC3)cc2)c(C)c1` the “hERG current change (%, negative = inhibition) at 1uM” value was 2.93%. For `O=C(Nc1cccc(NC(=O)N2CCN(c3ccccc3)CC2)c1)N1CCN(c2ccccc2)CC1`, the “hERG current change (%, negative = inhibition) at 1uM” value was -1.69%. With `Cl.OC(COCC1COc2ccccc2O1)CN1CCCCC1` (stereo not drawn) the “hERG current change (%, negative = inhibition) at 1uM” value was -10.8%. For `Cc1nn(Cc2ccccc2)c2c1C(c1ccc(Cl)cc1)C(C#N)=C(N)O2` (stereo not drawn), the “hERG current change (%, negative = inhibition) at 1uM” value was 10.8%. With `CCOC(=O)C1CCCN(C(=S)NC2CCCC2)C1` (stereo not drawn) the “hERG current change (%, negative = inhibition) at 1uM” value was -4.23%. With `O=C(CC(CC(=O)c1ccccc1)c1ccccc1)c1ccccc1` the “hERG current change (%, negative = inhibition) at 1uM” value was 12%. `Cn1ncc2nnn(-c3ccccc3)c(=O)c21` was tested, and the “hERG current change (%, negative = inhibition) at 1uM” value was -0.008%. `COc1ccc(C(O)C(C)NC(C)C(O)c2ccc(OC)cc2)cc1` (stereo not drawn) was tested, and the “hERG current change (%, negative = inhibition) at 1uM” value was 8.68%. `O=C(COC(=O)/C=C/c1cccc(Br)c1)NC1CCCCCC1` was tested, and the “hERG current change (%, negative = inhibition) at 1uM” value was 7.48%. `COc1ccccc1-n1cc(-c2ccc(Cl)cc2)[nH]c1=O` was tested, and the “hERG current change (%, negative = inhibition) at 1uM” value was 7.06%. `COc1ccc(COc2cc(-c3cccc(OC)c3)nc3ccc(NC(=O)c4ccc(N(C)C)cc4)cc23)cc1` was tested, and the “hERG current change (%, negative = inhibition) at 1uM” value was 13.5%. In the case of `CC(=NCCCO)c1c(O)[nH]c(=O)[nH]c1=O`, the “hERG current change (%, negative = inhibition) at 1uM” value is reported as 10%. For `CCCC(C(=O)O)n1c(O)c(C=C2N=c3ccccc3=N2)sc1=S` (stereo not drawn), the “hERG current change (%, negative = inhibition) at 1uM” value was 6.07%. With `COc1cc(C(=O)C(=O)c2cc(OC)c(O)c(OC)c2)cc(OC)c1O` the “hERG current change (%, negative = inhibition) at 1uM” value was -1.3%. For `O=C(CN1C(=O)c2ccccc2C1=O)Nc1sc2c(c1C(=O)NCC1CCCO1)CCC2` (stereo not drawn), the “hERG current change (%, negative = inhibition) at 1uM” value was -1.17%. For `CCCc1[nH]nc2c1C(c1ccc(O)c(OC)c1)C(C#N)=C(N)O2` (stereo not drawn), the “hERG current change (%, negative = inhibition) at 1uM” value was 1.92%. `Fc1ccc(-c2n[nH]c(=S)n2CC2CCCO2)cc1` (stereo not drawn) was tested, and the “hERG current change (%, negative = inhibition) at 1uM” value was 12.2%. For `O=C(CN1C(=O)NC(Cc2ccccc2)C1=O)Nc1ccc(F)c(F)c1F` (stereo not drawn), the “hERG current change (%, negative = inhibition) at 1uM” value was 11.2%. In the case of `CC(=O)Nc1ccc(NC(=O)CSc2nnc(NC(=O)Cc3ccc(F)cc3)s2)cc1`, the “hERG current change (%, negative = inhibition) at 1uM” value is reported as 16.4%. In the case of `NC(=O)COc1ncn(-c2ccccc2)n1`, the “hERG current change (%, negative = inhibition) at 1uM” value is reported as 8.26%. With `CCCCn1c(N)c(N(CCOC)C(=O)c2ccc3c(c2)OCCO3)c(=O)[nH]c1=O` the “hERG current change (%, negative = inhibition) at 1uM” value was 5.48%. With `Cc1sc2ncn3c(C)nnc3c2c1C` the “hERG current change (%, negative = inhibition) at 1uM” value was 4.43%. With `COc1ccc(CCNC(=O)C(=O)NCC2OCCN2S(=O)(=O)c2ccc(Br)cc2)cc1` (stereo not drawn) the “hERG current change (%, negative = inhibition) at 1uM” value was -4.81%. With `COc1ccc(CN2CCNC(=O)C2CC(=O)NCc2ccc(C)s2)c(OC)c1` (stereo not drawn) the “hERG current change (%, negative = inhibition) at 1uM” value was 4.84%. `COc1ccc(CC(=O)Nc2ccc3c(c2)CCC3)cc1` was tested, and the “hERG current change (%, negative = inhibition) at 1uM” value was 12.5%. `O=C1c2cccc3cccc(c23)C(=O)N1CCN1CCN(CC(O)COc2ccc3ccccc3c2)CC1` (stereo not drawn) was tested, and the “hERG current change (%, negative = inhibition) at 1uM” value was 11.8%. With `O=C(NC1CCS(=O)(=O)C1)C1CCCC1` (stereo not drawn) the “hERG current change (%, negative = inhibition) at 1uM” value was 4.62%.
